Assay results reported in article PMC10838290.
Results are given in words; binding and its absence hold for the method and conditions named. For some of these results: In cells and extracts the contact can be indirect. Some binding calls cover weakened binding; strength is not graded here. Values belong to the substance of their own block, whether it stands above or below them.

Sequences of proteins named here, by UniProt entry; tags and fusion partners are left off. A change or cut given only in a name is not applied to a line headed by its entry.
UniProt Q15327: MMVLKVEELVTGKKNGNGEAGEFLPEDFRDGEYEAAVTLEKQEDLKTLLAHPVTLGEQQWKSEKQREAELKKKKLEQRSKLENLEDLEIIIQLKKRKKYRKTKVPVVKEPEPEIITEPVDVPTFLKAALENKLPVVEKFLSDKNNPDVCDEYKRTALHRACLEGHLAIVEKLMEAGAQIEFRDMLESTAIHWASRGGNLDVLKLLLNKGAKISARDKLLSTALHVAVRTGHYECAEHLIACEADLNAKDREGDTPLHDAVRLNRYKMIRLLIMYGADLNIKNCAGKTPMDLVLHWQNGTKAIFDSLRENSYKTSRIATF
UniProt P05412: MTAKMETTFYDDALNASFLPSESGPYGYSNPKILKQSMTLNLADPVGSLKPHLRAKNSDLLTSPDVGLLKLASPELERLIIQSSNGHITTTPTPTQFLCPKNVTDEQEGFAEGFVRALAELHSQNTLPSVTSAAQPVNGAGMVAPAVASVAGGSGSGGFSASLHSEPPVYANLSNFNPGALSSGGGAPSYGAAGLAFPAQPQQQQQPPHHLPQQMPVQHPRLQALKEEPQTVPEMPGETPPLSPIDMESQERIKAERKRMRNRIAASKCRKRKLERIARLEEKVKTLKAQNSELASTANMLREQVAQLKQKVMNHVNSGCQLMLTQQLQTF
UniProt P01100: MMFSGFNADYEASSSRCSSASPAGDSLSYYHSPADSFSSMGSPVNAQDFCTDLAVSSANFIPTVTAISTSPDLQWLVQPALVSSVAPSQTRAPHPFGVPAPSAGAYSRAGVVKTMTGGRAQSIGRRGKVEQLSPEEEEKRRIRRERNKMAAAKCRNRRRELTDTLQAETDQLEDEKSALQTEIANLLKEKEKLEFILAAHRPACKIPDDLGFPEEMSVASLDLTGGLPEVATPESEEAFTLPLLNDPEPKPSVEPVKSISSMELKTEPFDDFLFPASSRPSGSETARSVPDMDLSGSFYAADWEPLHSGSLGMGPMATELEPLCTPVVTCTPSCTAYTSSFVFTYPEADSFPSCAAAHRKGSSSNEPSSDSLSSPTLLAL

Key:
[1] = target: GST-tagged ANKRD1 recombinant protein (UniProt Q15327); experiment: pull-down; GST-tagged ANKRD1 (100 ng) held on glutathione-conjugated beads, mixed with recombinant JUN or FOS proteins (100 ng each), alone or combined, with or without AP-1 DNA oligo or T-5224 (20 uM); 150 mM NaCl, 100 mM Tris pH 8, 0.5% NP40, 10% glycerol; overnight at 4 °C; western blot; both purified
[2] = target: ANKRD1 fused with a V5-tag, expressed in HEK293 cells (human) (UniProt Q15327); experiment: co-IP; V5-tag magnetic beads, 250 ug lysate of ANKRD1-overexpressing HEK293 cells digested with DNase I; 50 mM Tris-HCl pH 7.4, 150 mM NaCl, 1 mM EDTA, 1% NP-40, 1% Na-deoxycholate, 0.05% SDS; 4 °C, 12 hours; immunoblot for ANKRD1, JUN, FOSL2
[3] = target: ANKRD1 fused with a V5-tag, expressed in human dermal fibroblasts (human) (UniProt Q15327); experiment: proximity ligation; Duolink PLA on fixed, permeabilised cells with anti-ANKRD1, anti-JUN and anti-FOSL2 (FRA2) antibodies; HDFs infected with ANKRD1OE or CTRL vector, CAFs and matched HDFs, CAFs with shANKRD1 or ANKRD1-FANA ASO; puncta per cell
[4] = target: ANKRD1, endogenous in cancer-associated fibroblasts (human (endogenous in CAFs)) (UniProt Q15327); experiment: as above
[5] = target: GST-tagged ANKRD1 recombinant protein (UniProt Q15327); experiment: condition: only c-JUN heat denatured (20 min at 98 °C) before the binding assay; 100 ng; pull-down; as a1, but recombinant JUN heated for 20 min at 98 °C before mixing with GST-tagged ANKRD1; both purified

Substance: c-JUN, endogenous in HEK293 cells (from UniProt P05412 1-331)
binding [2]: binds

Substance: HIS-tagged FOS recombinant protein (full-length FOS) (from UniProt P01100 1-380)
binding [1]: binds weakly

Substance: full-length JUN recombinant protein (from UniProt P05412 1-331)
binding [5]: no binding
binding [1]: binds

Continued, values first:

binding [1]: no binding (tested: 100 ng)
Substance: HIS-tagged JUN (truncated form 1-241aa) (from UniProt P05412 1-241) (domain or fragment)

binding [3]: binds
binding [4]: binds
Substance: c-JUN, endogenous in human dermal fibroblasts and cancer-associated fibroblasts (from UniProt P05412 1-331)
